± gives the standard deviation of the averaged measurements. The list shows a part of the results.

The experiment has as its system PfAP2-I AP2 domain 3 (GST-tagged). As to the kind of experiment: gcPBM binding intensity (ln(normalized median fluorescence intensity)); higher = stronger DNA binding. An outline of the steps:
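GST-fused DNA-binding domains of P. falciparum, expressed in E. coli, were applied at about 25 μg on average for 1 h to an Agilent 4 × 180k array of primer-extended double-stranded 36-bp intergenic genomic probes and negative controls. Binding intensity is the highest Masliner-normalised natural-log median intensity across replicate spots of either probe orientation, measured with Alexa488 anti-GST antibody and a 488 nm scan.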
Consider “ACTTCATAAACATTTTGTACGTATGTATCTTTTTAT [XGTACX_site7012]”, for which the “gcPBM binding intensity (ln)” value was found to be 8.03 ± 0.59.
“TTAATATGGAAATGTTGTACATTTCTTGAAGCATTC [XGTACX_site525]”: the “gcPBM binding intensity (ln)” value stood at 7.61 ± 0.54.
Consider “TCCTTAGAAATATTGATCATAAACTGGAAAGGTATA [XGTACX_negctrl_site354]”, for which the “gcPBM binding intensity (ln)” value stood at 7.54 ± 0.59.
Then “TGTATTATTAATATTTGTACGTAATAATAAAAACAT [XGTACX_site3716]”, with 8.07 ± 0.39; and “TGGAAACAAAAACACACACACAAAAAAAAAAAAAAA [CACACA_site3209]”, with 8.06 ± 0.47.
Then “GAAATATATAAATTGACACACACATATATACATATA [CACACA_site8323]”, with 7.7 ± 0.41; and “CATAAATACAGATATACACACATATATATATATATA [CACACA_site4528]”, with 9.44 ± 0.69; and “TTTAACATAAATTAAACACACAATAAAATACATTAA [CACACA_site6699]”, with 7.58 ± 0.61.
For “ATAATACATATAGAAGGTACACTATTATTTTCCTGA [XGTACX_site903]”, the “gcPBM binding intensity (ln)” value was found to be 7.71 ± 0.45.
As for “ATTATCCATGCATTTACACACACACTAATAAAAATT [CACACA_site9358]”, the “gcPBM binding intensity (ln)” value came to 8.85 ± 0.43.
Take “ATATATTTCTGTCAAGCACACATAATATTAATATAT [CACACA_site7993]”: the “gcPBM binding intensity (ln)” value amounted to 8.24 ± 0.38.
For “AATGATACTTAGGGGCATGTCTCTGGGGGCATAACC [CACACA_negctrl_site591]” the value was 9.3 ± 0.13; for “TACAAATATAGATGCACACACATATAGGTATATGTG [CACACA_site7439]”, 8.48 ± 0.099.
As for “TATATATAATTATAAGAACACACATATATATATATA [CACACA_site8786]”, the “gcPBM binding intensity (ln)” value turned out to be 9.11 ± 0.099.
For “GTTATAAACAAAATAAATATATGAATATATAATAAT [XGTACX_negctrl_site96]” the value was 7.46 ± 0.5; for “CATATTATATTTTCATGTACACATAACATATTTATA [XGTACX_site4787]”, 8.04 ± 0.24; for “ATATAGTAAATGTTCACACATACAAATATATATATA [CACACA_site5518]”, 8.87 ± 0.17.
As for “AAGTTTTCTTAAAGCTGTACTTTTTAAAAATAAAAT [XGTACX_site7716]”, the “gcPBM binding intensity (ln)” value is 7.59 ± 0.54.
“TAAATATATATATATTGTACAAAACAAATGTGAATT [XGTACX_site696]”: the “gcPBM binding intensity (ln)” value amounted to 8.09 ± 0.57.
With “TTAAAAATATTATGTACACACATTTTAGATATTTGT [CACACA_site1846]”, the “gcPBM binding intensity (ln)” value worked out at 7.71 ± 0.45.
Then “TAATTAAAATCATATACACACCCATATATATATATA [CACACA_site8524]”, with 9.35 ± 0.33; and “TCCTAATATTTGTCAAATTTCAAAATAAATAAAATG [XGTACX_negctrl_site540]”, with 7.52 ± 0.48; and “TTAAAAAAAAAAAAAAGTACATAAGTATATATAATA [XGTACX_site4295]”, with 7.61 ± 0.57.
“CATATTTTTTCTTAAACACACACATATATATATATA [CACACA_site8920]”: the “gcPBM binding intensity (ln)” value came out at 9.34 ± 0.38.
For “TATATATATATGTACACACACACATATAAATAAATA [CACACA_site443]” the value was 9.19 ± 0.21; for “TAAAAGGGGATATATGAACACACAAAAAAAAAATAT [CACACA_site8940]”, 7.97 ± 0.66.
For “TAAATGTTTCTCAAAAGTACACATGTGATATTTCTT [XGTACX_site2065]” the value was 7.73 ± 0.21; for “ATATTAAGTTTTATTACACACTCTCAATTTTTATTT [CACACA_site4206]”, 8.06 ± 0.57; for “AATACAATAAAATAGTGTACATATATATTATGTATA [XGTACX_site8258]”, 7.63 ± 0.27.
Then “ATATATATATATATTTGTACGTATTATGTATTTTTT [XGTACX_site3530]”, with 9.3 ± 0.16; and “TTAAAATATGATATATGTACATAATTACTAAAAACA [XGTACX_site276]”, with 8.11 ± 0.32.
In the case of “GAATAAATTAAAAACGCATGTATCATTACTACATAA [TGCATGCA_site111]”, the “gcPBM binding intensity (ln)” value stood at 7.36 ± 0.48.
As to “TTTATATTATACTATACATGCATATAATAAAGGTCA [TGCATGCA_site934]”, the “gcPBM binding intensity (ln)” value stood at 7.8 ± 0.6.
For “AATAGAATAATCCTTACACACACACGCGCACGAATA [CACACA_site6365]” the value was 8.03 ± 0.79; for “ATTTTATTTTTTTGTGATAATTGATTTATATATTGT [TGCATGCA_negctrl_site563]”, 7.57 ± 0.54; for “TATATATTACATTGTTGTACATATATATTATATATA [XGTACX_site60]”, 7.61 ± 0.3.
Regarding “ATTATTTCTTTGTGATGTACAAATAAACATGTTGGT [XGTACX_site5636]”, the “gcPBM binding intensity (ln)” value is 7.86 ± 0.57.
Then “ATATATATTTCTTAAAGTACATAATAATAAAAATAT [XGTACX_site8981]”, with 7.79 ± 0.44; and “AAAGCACCCAGGCACACACACAAAGGAAAAGAAAAA [CACACA_site232]”, with 7.95 ± 0.49.
Then “ATAATTATTAAGAGAACATGCAAAATATATATGTTT [TGCATGCA_site503]”, with 7.68 ± 0.79.
Then “TTTTAATAAACAAAACGTACACATTATTATTATATA [XGTACX_site335]”, with 7.79 ± 0.14.
As to “TTTGTAGTTTGCACATGTACACATTTCAAAATAAAG [XGTACX_site7568]”, the “gcPBM binding intensity (ln)” value was 8.88 ± 0.11.
For the sequence TTTTTTTTTTTGTGGGTGCGTTTATAAAAACAGGAA, the “gcPBM binding intensity (ln)” value stood at 10.8 ± 0.67.
Then “TTTTTTTCTTGTTTTAAATAATATACTGGAAAAAAA [CACACA_negctrl_site585]”, with 7.57 ± 0.38.
On to “AGAGAGAAAGTTATAACATGCAACAATTTTTAGAAC [TGCATGCA_site96]”, for which the “gcPBM binding intensity (ln)” value stood at 8.05 ± 0.83.
Turning to “AATATATACATATATTGTACATATAGTTTCTTGCAT [XGTACX_site7871]”, the “gcPBM binding intensity (ln)” value was determined as 7.62 ± 0.59.
Then “TTTCCATATTGTGGATGTACGTTTTGAGGTTTTTAC [XGTACX_site3362]”, with 7.8 ± 0.29.
For “ATTTATCCAAAAAAATGTACAGGATAATTTGTTCAT [XGTACX_site7737]”, the “gcPBM binding intensity (ln)” value is 7.61 ± 0.53.
For “TATTATGCCTTTAATATACACACTAATATTTTTTTG [CACACA_site2045]” the value was 7.79 ± 0.56; for “CATAATACCTATAACACACACAATTATACATAAACT [CACACA_site7506]”, 7.82 ± 0.55.
For “TATAAAAATTAATATTGTACGTTTTATGAAAATAAA [XGTACX_site8237]” the value was 7.71 ± 0.16; for “GGGTTCAATTTAAAGAGTACAAAAAATGTAGGTCAT [XGTACX_site5290]”, 8.02 ± 0.7; for “TTTTCATAAAATCATTGTACATTTATCGTATATTAA [XGTACX_site3855]”, 7.72 ± 0.45.
Then “ATATTGTAAGTAAACACACACACATATATATGTATA [CACACA_site8124]”, with 7.72 ± 0.62; and “AAAATATCTTATATATGTACATATTTATATTTATAT [XGTACX_site6027]”, with 7.64 ± 0.42.
On to “TTGTTTTTTTTTGGCTGTACGTTCATAAATTTTTTT [XGTACX_site4165]”, for which the “gcPBM binding intensity (ln)” value came to 8 ± 0.52.
For “AAAAAAAAAAAAAAAACACACAGAACAATATATAAA [CACACA_site4698]” the value was 8.74 ± 0.38.
As to “TTTTTTATAAAATTTTTTTTTTAAAATATTAAAACT [XGTACX_negctrl_site240]”, the “gcPBM binding intensity (ln)” value was determined as 7.33 ± 0.45.
For “AAGCTATATATAGGCAGTACTTTGTAAGTGTAGATA [XGTACX_site8365]” the value was 7.89 ± 0.47; for “TTTCTAATTCTTAGTGGTACACAGTTCTGCTGATAT [XGTACX_site2391]”, 7.67 ± 0.55.
For “ATATGTCACTTGTATACACACATATAGATTTCAATC [CACACA_site7519]” the value was 8.05 ± 0.67; for “TATATGCATATACATACACACATAACACATACGTTT [CACACA_site3832]”, 7.94 ± 0.49.
For “TATTTGTTGTGAGTCACACATATATATATATATATA [CACACA_site4240]” the value was 9.4 ± 0.49; for “GTTAAAATTGGGGACGCATGTTCCTTTCCTTTTTTT [TGCATGCA_site1002]”, 7.68 ± 0.48; for “AATATATGTATATATTTTTTTTTTTCCCTTACAAAT [GTGCAC_negctrl_site428]”, 7.36 ± 0.71.
Consider “TTATAAATGTAACGATGTACTTTTAAAAGTTTCCTT [XGTACX_site109]”, for which the “gcPBM binding intensity (ln)” value was 7.66 ± 0.16.
Then “GGAATGGTACATGATACACACACGCACATATATATA [CACACA_site5825]”, with 8.34 ± 0.86; and “TATATTAAACAATATACACACATTAATGTATACATA [CACACA_site2755]”, with 7.68 ± 0.45.
On to “ATATAATAGTTATATTGTACATAAATTATACACCTT [XGTACX_site628]”, for which the “gcPBM binding intensity (ln)” value was found to be 7.97 ± 0.49.
Consider “ATACGCACACATATATGTACATATTGTATATATATA [XGTACX_site3962]”, for which the “gcPBM binding intensity (ln)” value was 8.74 ± 0.34.
Then “TATAAACACCCATATAAACACACATATAAACCAACA [CACACA_site8790]”, with 8.19 ± 0.099.
Then “ACAATTTACACTTAAACACACAAAAAAAAATTATAT [CACACA_site2065]”, with 7.87 ± 0.54; and “ACATATATATTCATATGTACATATACATACATACAT [XGTACX_site4563]”, with 8.84 ± 0.4.
For “AAGGTAGAAATATGTTGTACGGTTTGGAGGAAGCAA [XGTACX_site1105]” the value was 8.12 ± 0.49.
In the case of “GCATCGATCAAACATACACACATGGTTAATAAAAAT [CACACA_site8651]”, the “gcPBM binding intensity (ln)” value stood at 7.8 ± 0.59.
For “TGTTTTATTTTATTAGTGCATTTTTATTTATAATAG [GTGCAC_site9453]” the value was 9.77 ± 0.2; for “TTAAAAAAAAAACACACACACATACACATATATATA [CACACA_site3299]”, 8.31 ± 0.64.
Then “TTTTTATATTTTTGCACACATTCTTTACTCTTCAAA [CACACA_site2210]”, with 9.87 ± 0.12.
For “TATATATATGGACACACACACATATAAATAAATAAA [CACACA_site4406]”, the “gcPBM binding intensity (ln)” value was determined as 8.01 ± 0.69.
“ATAATTAATAAATAATGTACATATATATTATATTTT [XGTACX_site8546]”: the “gcPBM binding intensity (ln)” value amounted to 7.55 ± 0.43.
With “TGTGAAGTACCGAATGTGCACTGTGTGTGTTCTTTT [GTGCAC_site9613]”, the “gcPBM binding intensity (ln)” value came out at 10.12 ± 0.014.
For “TTTTTTTTTTTTTTTTTTTCTATTTTACTGTTTCGT [CACACA_negctrl_site850]”, the “gcPBM binding intensity (ln)” value worked out at 8.02 ± 0.4.
For the sequence “TTACCGTAAAAATTTTGTACATAAAATAATATATAA [XGTACX_site532]”, the “gcPBM binding intensity (ln)” value is 7.92 ± 0.35.
Take “GATATAAAATATTGGTGTACTTTTTTTTTTTTTTTT [XGTACX_site7174]”: the “gcPBM binding intensity (ln)” value was determined as 8.76 ± 0.4.
On to “GTATGTGTGTCAAGTCGTACTTACCTTTAAATTTTT [XGTACX_site2507]”, for which the “gcPBM binding intensity (ln)” value came out at 8.08 ± 0.55.
Then “CACATACATATATATACACACAAATATATATACACA [CACACA_site8164]”, with 7.88 ± 0.42; and “ACCATGAAAATATTATGTACATATGTATTATATATA [XGTACX_site408]”, with 7.79 ± 0.35.
For “GAGTGAGCTAATAAAAGTACGTAATAAACAAACGCA [XGTACX_site131]” the value was 7.81 ± 0.65.
For “ATAGCTGTATTTAATACACACAAAACTTTCATTCCA [CACACA_site5868]” the value was 7.95 ± 0.51.

The record behind these values is the supplement of paper PMC11417369.
